Test results: the supplement of paper PMC4604168 (melanoma cell lines)
Some of the results follow. Single values are uncertain, as repeats are few or missing.

Columns and labels:
Test in all cases: cell count relative to DMSO control; melanoma cells; higher = more viable cells
Conditions in all cases: library dose: standard library concentration; 72 h
SkMel28 = system: SkMel28
SkMel2 = system: SkMel2
SkMel30 = system: SkMel30
SkMel5 = system: SkMel5
UACC257 = system: UACC257
UACC62 = system: UACC62
WM115 = system: WM115
WM1716 = system: WM1716
WM1745 = system: WM1745
WM3526 = system: WM3526
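Also: cells treated in 1,536-well plates, then fixed and DAPI-stained, with nuclei counted from automated high-throughput microscope images.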

Row | SMILES | cell count (SkMel28) | cell count (SkMel2) | cell count (SkMel30) | cell count (SkMel5) | cell count (UACC257) | cell count (UACC62) | cell count (WM115) | cell count (WM1716) | cell count (WM1745) | cell count (WM3526)
1 | Cn1cc(C2=C(c3cn(C4CCN(Cc5ccccn5)CC4)c4ccccc34)C(=O)NC2=O)c2ccccc21 [Enzastaurin] + COc1ccc(C2=N[C@@H](c3ccc(Cl)cc3)[C@@H](c3ccc(Cl)cc3)N2C(=O)N2CCNC(=O)C2)c(OC(C)C)c1 [Nutlin-3] (first compound 4 µM, partner dose 0.5 µM) | 37.1% | 120% | 107% | 84.2% | 80.4% | 54.6% | 106% | 77.7% | 77.8% | 99.1%
2 | C[As](C)SC[C@H](NC(=O)CC[C@H](N)C(=O)O)C(=O)NCC(=O)O [Darinaparsin] + CC(C)(C)c1cnc(CSc2cnc(NC(=O)C3CCNCC3)s2)o1 [SNS-032] (first compound 2 µM, partner dose 0.05 µM) | 50.3% | 73.3% | 67.9% | 44.9% | 79.6% | 59.1% | 41.8% | 39.4% | 56.9% | 72%
3 | Cn1cc(C2=C(c3cn(C4CCN(Cc5ccccn5)CC4)c4ccccc34)C(=O)NC2=O)c2ccccc21 [Enzastaurin] + Nc1nc(F)nc2c1ncn2[C@@H]1O[C@H](CO)[C@@H](O)[C@@H]1O [fludarabine] (first compound 4 µM, partner dose 1 µM) | 2.02% | 1.75% | 21.4% | 27.6% | 43.6% | 79.7% | 92.1% | 87.4% | 53.6% | 19.2%
4 | N.N.[Cl][Pt][Cl] [cisplatin] + O=C(CCCCCCC(=O)Nc1ccccc1)NO [vorinostat] (first compound 8 µM, partner dose 0.4 µM) | 56.2% | 75.9% | 75.2% | 53.5% | 57.5% | 73% | 63.4% | 77.2% | 55.8% | 62.1%
5 | C[As](C)SC[C@H](NC(=O)CC[C@H](N)C(=O)O)C(=O)NCC(=O)O [Darinaparsin] + Cc1cc([N+](=O)[O-])ccc1NS(=O)(=O)c1cc(Cl)ccc1Cl [FH535] (first compound 2 µM, partner dose 5 µM) | 63.4% | 91.3% | 76.2% | 62.9% | 71.1% | 80.5% | 88.5% | 52.5% | 101% | 83.1%
6 | N.N.[Cl][Pt][Cl] [cisplatin] + O=C(O)c1ccc2c(c1)nc(Nc1cccc(Cl)c1)c1ccncc12 [CX4945] (first compound 8 µM, partner dose 2 µM) | 116% | 105% | 85.1% | 99.4% | 72.5% | 90.4% | 110% | 91.4% | 62.2% | 103%
7 | C[As](C)SC[C@H](NC(=O)CC[C@H](N)C(=O)O)C(=O)NCC(=O)O [Darinaparsin] + Cc1ccc(NC(=O)c2cccc(N(C)C)c2)cc1NC(=O)c1ccc(O)cc1 [ZM336372] (first compound 2 µM, partner dose 10 µM) | 82.5% | 76.8% | 95.6% | 61.5% | 80.7% | 101% | 93.3% | 84.3% | 121% | 77%
8 | N.N.[Cl][Pt][Cl] [cisplatin] + COc1cc(Nc2ncc(F)c(Nc3ccc4c(n3)NC(=O)C(C)(C)O4)n2)cc(OC)c1OC [Tamatinib] (first compound 8 µM, partner dose 2 µM) | 55.2% | 83.9% | 77.9% | 55% | 65.1% | 73.9% | 65.5% | 59.8% | 46.6% | 60.2%
9 | C[As](C)SC[C@H](NC(=O)CC[C@H](N)C(=O)O)C(=O)NCC(=O)O [Darinaparsin] + COC(=O)c1sccc1S(=O)(=O)Nc1ccc(Nc2ccccc2)cc1OC [GSK0660] (first compound 2 µM, partner dose 5 µM) | 58.2% | 82.4% | 71.1% | 50.8% | 81.2% | 63.1% | 73.2% | 63.4% | 83.8% | 68.6%
10 | C[As](C)SC[C@H](NC(=O)CC[C@H](N)C(=O)O)C(=O)NCC(=O)O [Darinaparsin] + Cn1cc(/C=C2\C(=O)Nc3cccnc32)c2ccccc21 [GW441756] (first compound 2 µM, partner dose 2 µM) | 71.7% | 104% | 75.4% | 38.9% | 70.5% | 93.7% | 77.3% | 71.8% | 74.8% | 73%
11 | C[C@]12O[C@H](C[C@]1(O)CO)n1c3ccccc3c3c4c(c5c6ccccc6n2c5c31)CNC4=O [Lestaurtinib] + CS(=O)(=O)c1ccc(C(=O)Nc2ccc(Cl)c(-c3ccccn3)c2)c(Cl)c1 [vismodegib] (first compound 0.02 µM, partner dose 5 µM) | 95.7% | 119% | 85.8% | 68.1% | 89% | 76% | 79.2% | 95.5% | 97.2% | 71.3%
12 | C[C@]12O[C@H](C[C@]1(O)CO)n1c3ccccc3c3c4c(c5c6ccccc6n2c5c31)CNC4=O [Lestaurtinib] + OCCn1cc(-c2cnc3nnn(Cc4ccc5ncccc5c4)c3n2)cn1 [PF04217903] (first compound 0.02 µM, partner dose 5 µM) | 104% | 104% | 98.7% | 72.2% | 113% | 98.7% | 86.8% | 86.8% | 78.9% | 61.9%
13 | N.N.[Cl][Pt][Cl] [cisplatin] + Cn1nnc2c(C(N)=O)ncn2c1=O [temozolomide] (first compound 8 µM, partner dose 10 µM) | 24.8% | 112% | 71.2% | 120% | 108% | 64.6% | 91% | 39.5% | 126% | 111%
14 | N.N.[Cl][Pt][Cl] [cisplatin] + O=C(O)[C@@H]1[O][Sb](=[O])([O][Sb]2(=[O])[O][C@H]([C@H](O)CO)[C@H](O)[C@H](C(=O)O)[O]2)[O][C@H]([C@H](O)CO)[C@@H]1O [stibogluconate] (first compound 8 µM, partner dose 10 µM) | 101% | 109% | 83.2% | 104% | 80.8% | 78% | 110% | 66.8% | 80.6% | 86.8%
15 | C[As](C)SC[C@H](NC(=O)CC[C@H](N)C(=O)O)C(=O)NCC(=O)O [Darinaparsin] + NC(=O)Nc1cc(-c2cccc(F)c2)sc1C(=O)N[C@H]1CCCNC1 [AZD7762] (first compound 2 µM, partner dose 0.1 µM) | 33.3% | 81.7% | 84.6% | 62.7% | 84.8% | 69.5% | 65.9% | 45.1% | 61.8% | 53.4%
16 | C[As](C)SC[C@H](NC(=O)CC[C@H](N)C(=O)O)C(=O)NCC(=O)O [Darinaparsin] + COCC[n+]1c2c(n(Cc3cnccn3)c1C)C(=O)c1ccccc1C2=O [YM155] (first compound 2 µM, partner dose 0.002 µM) | 41.3% | 33.9% | 49.6% | 26% | 17.3% | 46.4% | 63.9% | 54.9% | 60.4% | 44.3%
17 | Cn1cc(C2=C(c3cn(C4CCN(Cc5ccccn5)CC4)c4ccccc34)C(=O)NC2=O)c2ccccc21 [Enzastaurin] + CCN(CC)CCNC(=O)c1c(C)[nH]c(/C=C2\C(=O)Nc3ccc(F)cc32)c1C [sunitinib] (first compound 4 µM, partner dose 2 µM) | 64.1% | 68.5% | 66.2% | 63.4% | 76.7% | 35.5% | 83.9% | 89% | 28.8% | 61.1%
18 | C[As](C)SC[C@H](NC(=O)CC[C@H](N)C(=O)O)C(=O)NCC(=O)O [Darinaparsin] + O=C(Nc1cccc(Cl)c1)Nc1ncc(CCNc2ncnc3ccsc23)s1 [SNS314] (first compound 2 µM, partner dose 0.004 µM) | 46.1% | 59.5% | 90.6% | 58.1% | 59.4% | 88.3% | 42.1% | 48.7% | 76.9% | 58.8%
19 | C[As](C)SC[C@H](NC(=O)CC[C@H](N)C(=O)O)C(=O)NCC(=O)O [Darinaparsin] + COc1ccc(-c2ccc3c(N4CCOCC4)nc(N4C[C@@H](C)O[C@@H](C)C4)nc3n2)cc1CO [KU0063794] (first compound 2 µM, partner dose 0.1 µM) | 56.5% | 90.3% | 79.4% | 53.6% | 94.1% | 98% | 75.1% | 55.2% | 87.8% | 79%
20 | C[C@]12O[C@H](C[C@]1(O)CO)n1c3ccccc3c3c4c(c5c6ccccc6n2c5c31)CNC4=O [Lestaurtinib] + Cn1cncc1[C@@](N)(c1ccc(Cl)cc1)c1ccc2c(c1)c(-c1cccc(Cl)c1)cc(=O)n2C [tipifarnib] (first compound 0.02 µM, partner dose 0.05 µM) | 34% | 56.6% | 73.2% | 51.2% | 81.4% | 62% | 46.5% | 59.4% | 76.2% | 59.6%
21 | C[C@]12O[C@H](C[C@]1(O)CO)n1c3ccccc3c3c4c(c5c6ccccc6n2c5c31)CNC4=O [Lestaurtinib] + O=C(O)[C@@H]1[O][Sb](=[O])([O][Sb]2(=[O])[O][C@H]([C@H](O)CO)[C@H](O)[C@H](C(=O)O)[O]2)[O][C@H]([C@H](O)CO)[C@@H]1O [stibogluconate] (first compound 0.02 µM, partner dose 10 µM) | 56.1% | 106% | 74% | 65% | 93.1% | 69% | 69.1% | 106% | 96.2% | 77.8%
